This passage reports cytotoxicity call and growth inhibition call results from the antibiotic and cytotoxicity screens of Wong et al. (2023).

One experiment concerns HSkMC. Nature of the experiment: cytotoxicity call (relative viability < 0.9). As to conditions: 10 µM.
A further experiment relates to HepG2. Nature of the experiment: cytotoxicity call (relative viability < 0.9). The settings on record: 10 µM.
The next experiment concerns S. aureus RN4220. Nature of the experiment: growth inhibition call (relative growth <= 0.2). The settings on record: 50 µM.

Each structure is given as a SMILES string. The list shows a part of the results.

For `C[C@@H]1CN([C@H](C)CO)C(=O)Cc2cc(NC(=O)Cc3cn(C)c4ccccc34)ccc2O[C@H]1CN(C)Cc1ccc(C(F)(F)F)cc1`, the cytotoxicity call in the experiment with HSkMC and with HepG2 was “inactive” each time. Moreover, in the experiment with S. aureus RN4220, the growth inhibition call is “inactive”.

With `C[C@H](CO)N1C[C@H](C)[C@H](CN(C)C(=O)Cc2ccncc2)Oc2cc(C#Cc3ccccc3F)ccc2S1(=O)=O`, the cytotoxicity call in the experiment on HSkMC and in the experiment with HepG2 was “inactive” throughout. Also, the growth inhibition call in the experiment on S. aureus RN4220 is “inactive”.

Regarding `COC(=O)NN=Cc1c[n+]([O-])c2ccccc2[n+]1[O-]`, the cytotoxicity call in the experiment with HSkMC and in the experiment with HepG2 was “inactive” in each case. Moreover, the growth inhibition call in the experiment on S. aureus RN4220 was “inactive”.

`C[C@H]1CN([C@@H](C)CO)C(=O)Cc2cc(NS(=O)(=O)c3cn(C)cn3)ccc2O[C@H]1CN(C)CC1CC1`: the cytotoxicity call in the experiment on HSkMC and in the experiment on HepG2 was “inactive” in each case. In addition, the growth inhibition call in the experiment on S. aureus RN4220 was “inactive”.

On to `C[C@@H]1CN([C@H](C)CO)S(=O)(=O)c2ccc(-c3cccnc3)cc2O[C@H]1CN(C)C(=O)c1cccc(F)c1`, for which the cytotoxicity call in the experiment with HSkMC and in the experiment on HepG2 was “inactive” each time. For the same molecule, in the experiment on S. aureus RN4220, the growth inhibition call is “inactive”.

As for `COc1cc2c(cc1OC)CN(C(=O)[C@@H]1[C@H]3C(=O)O[C@H](c4ccccc4)[C@H](c4ccccc4)N3[C@H](c3ccc(OCCO)cc3)[C@@]13C(=O)Nc1ccc(C#CC4(O)CCCCCC4)cc13)CC2`, the cytotoxicity call in the experiment on HSkMC is “inactive”. Also, in the experiment on HepG2, the cytotoxicity call is “active”. For the same molecule, the growth inhibition call with S. aureus RN4220 was “inactive”.

Regarding `C[C@@H]1CCCCO[C@@H](CN(C)C(=O)c2ccccc2)[C@H](C)CN([C@@H](C)CO)C(=O)c2cc(NC(=O)Nc3ccc4c(c3)OCO4)ccc2O1`, the cytotoxicity call in the experiment with HSkMC and in the experiment with HepG2 was “inactive” each time. In the experiment on S. aureus RN4220, the growth inhibition call was “inactive”.

As for `CC(C)CN1C[C@@H]2CCNCC[C@H]2S1(=O)=O`, the cytotoxicity call with HSkMC and in the experiment on HepG2 was “inactive” each time. In addition, the growth inhibition call in the experiment on S. aureus RN4220 is “inactive”.

In the case of `CC(C)NC(=O)Nc1ccc2c(c1)C(=O)N([C@H](C)CO)C[C@H](C)[C@H](CN(C)C(=O)Nc1cccc3ccccc13)OCCCC[C@H](C)O2`, the cytotoxicity call with HSkMC was “inactive”. In addition, in the experiment with HepG2, the cytotoxicity call was “active”. Moreover, in the experiment on S. aureus RN4220, the growth inhibition call was “inactive”.

For `COc1cccc(C(=O)Nc2ccc3c(c2)C(=O)N(C)[C@@H]2CC[C@@H](CC(=O)NCCCN4CCOCC4)O[C@H]2CO3)c1`, the cytotoxicity call in the experiment with HSkMC and with HepG2 was “inactive” each time. The growth inhibition call in the experiment with S. aureus RN4220 is “inactive”.

Turning to `N#Cc1ccc(-c2ccccc2)cn1`, the cytotoxicity call with HSkMC and with HepG2 was “inactive” throughout. In the experiment with S. aureus RN4220, the growth inhibition call was “inactive”.

Turning to `C[C@H](CO)N1C[C@H](C)[C@@H](CN(C)Cc2ccc3c(c2)OCO3)Oc2cc(Br)ccc2S1(=O)=O`, the cytotoxicity call in the experiment with HSkMC and in the experiment on HepG2 was “inactive” throughout. For the same molecule, the growth inhibition call with S. aureus RN4220 is “inactive”.

With `CNC(=C[N+](=O)[O-])NCCSCc1ccc(CN(C)C)o1.Cl`, the cytotoxicity call in the experiment with HSkMC and in the experiment with HepG2 was “inactive” in each case. Moreover, in the experiment with S. aureus RN4220, the growth inhibition call was “inactive”.

Turning to `O=C(NCCCN1CCOCC1)[C@@H]1[C@@H](CO)[C@@H]2Cn3c(cccc3=O)[C@H]1N2C(=O)NC1CCCC1`, the cytotoxicity call with HSkMC and in the experiment with HepG2 was “inactive” each time. For the same molecule, the growth inhibition call in the experiment on S. aureus RN4220 was “inactive”.

Turning to `C[C@@H]1CN([C@H](C)CO)C(=O)c2cccc(NC(=O)NC3CCCCC3)c2O[C@@H]1CN(C)S(C)(=O)=O`, the cytotoxicity call with HSkMC and in the experiment with HepG2 was “inactive” throughout. The growth inhibition call in the experiment with S. aureus RN4220 was “inactive”.

Take `C[C@@H]1CN([C@@H](C)CO)C(=O)c2cc(NC(=O)c3ccccc3)ccc2O[C@@H](C)CCCCO[C@@H]1CN(C)C(=O)c1ccccc1`: the cytotoxicity call with HSkMC and in the experiment on HepG2 was “inactive” in each case. Also, the growth inhibition call in the experiment on S. aureus RN4220 is “inactive”.

As for `C[C@@H]1CN([C@@H](C)CO)C(=O)c2cc(C#Cc3ccccn3)cnc2O[C@H]1CN(C)C(=O)c1cnccn1`, the cytotoxicity call in the experiment on HSkMC and in the experiment with HepG2 was “inactive” throughout. The growth inhibition call in the experiment on S. aureus RN4220 was “inactive”.

Turning to `C[C@H]1CCCCO[C@H](CN(C)CC2CC2)[C@@H](C)CN([C@@H](C)CO)C(=O)c2cc(NC(=O)Nc3ccc(C(F)(F)F)cc3)ccc2O1`, the cytotoxicity call in the experiment with HSkMC and with HepG2 was “inactive” each time. The growth inhibition call in the experiment on S. aureus RN4220 was “inactive”.

`C[C@@H]1CN([C@@H](C)CO)C(=O)c2cc(Br)cnc2O[C@H]1CN(C)C(=O)CCN1CCCCC1`: the cytotoxicity call in the experiment with HSkMC and in the experiment on HepG2 was “inactive” in each case. Further, the growth inhibition call with S. aureus RN4220 is “inactive”.

For the molecule `CC1CC(OC(=O)c2ccccc2O)CC(C)(C)C1` (stereo unspecified), the cytotoxicity call with HSkMC and in the experiment on HepG2 was “active” each time. In the experiment with S. aureus RN4220, the growth inhibition call is “inactive”.

Turning to `CC(=O)O[C@H](C)[C@H]1[C@@](C)(O)CC(=O)[C@]23O[C@]12C(=O)c1ccc(-c2ccc4c(c2O)[C@@H](O)[C@@]25O[C@]2(C4=O)[C@@H]([C@@H](C)OC(C)=O)[C@@](C)(O)CC5=O)c(O)c1[C@H]3O`, the cytotoxicity call in the experiment with HSkMC and in the experiment with HepG2 was “inactive” in each case. Moreover, the growth inhibition call with S. aureus RN4220 is “inactive”.

`COCCNC(=O)C[C@@H]1CC[C@@H]2[C@H](COC[C@H](O)CN2S(=O)(=O)c2ccccc2F)O1`: the cytotoxicity call in the experiment on HSkMC and in the experiment on HepG2 was “inactive” each time. Also, the growth inhibition call in the experiment on S. aureus RN4220 was “inactive”.

Consider `CCCCN(CCCC)[NH2+][O-]`, for which the cytotoxicity call in the experiment with HSkMC and in the experiment on HepG2 was “inactive” in each case. For the same molecule, in the experiment with S. aureus RN4220, the growth inhibition call is “inactive”.

With `COCC#Cc1ccc2c(c1)O[C@H](CN(C)S(=O)(=O)c1ccc(F)cc1)[C@@H](C)CN([C@H](C)CO)S2(=O)=O`, the cytotoxicity call in the experiment with HSkMC and in the experiment with HepG2 was “inactive” each time. Besides, the growth inhibition call in the experiment with S. aureus RN4220 was “inactive”.

Turning to `Cc1ccc(S(=O)(=O)N(C)C[C@@H]2Oc3ccc(NC(=O)CCCN(C)C)cc3C(=O)N([C@H](C)CO)C[C@H]2C)cc1`, the cytotoxicity call in the experiment on HSkMC (human skeletal muscle cells) and in the experiment with HepG2 was “inactive” each time. In the experiment on S. aureus RN4220, the growth inhibition call is “inactive”.

With `C[C@H](CO)N1C[C@H](C)[C@H](CN(C)C(=O)Nc2ccccc2)OCc2ccccc2-c2c(n(C)c3ccccc23)C1=O`, the cytotoxicity call with HSkMC and with HepG2 was “inactive” each time. Also, in the experiment on S. aureus RN4220, the growth inhibition call is “inactive”.

For `O=C(N[C@H]1CC[C@@H](CCNS(=O)(=O)c2ccc(F)cc2)O[C@@H]1CO)C1CC1`, the cytotoxicity call with HSkMC and with HepG2 was “inactive” throughout. Also, the growth inhibition call with S. aureus RN4220 is “inactive”.
